Experiment [1] has as its system CRAMP. In words: CRAMP expression in bone marrow of treated BNX mice (Northern blot). Conditions: intraperitoneal, 0.05 μg/mouse every two days for 6 weeks.
In experiment [2] the test system is CRAMP. In words: CRAMP in BM Mφ of VDR-deficient or wild type mice (QRT-PCR). It counts as cell-based. Conditions: for decrease of CRAMP: BM Mφ. As to the method: Primers against murine CAMP/CRAMP (forward, SEQ ID NO.: 7 and reverse, SEQ ID NO.: 8) (Table 3) were used at 200 nM per reaction.
The relative fold change between samples was determined using data normalized for 18S expression. Samples were analyzed in triplicate.

The test system of experiment [3] is CRAMP. In words: CRAMP induction in murine myeloid cell line 32Dc13 (Northern blot). Conditions: 32Dc13, 1×10^−7 M, 24 and 48 h.
A further experiment has as its system CAMP. The experiment can be described thus: Induction of CAMP mRNA expression in U937 cells (QRT-PCR, RT-PCR, Northern blot). The note with it: U937, 1×10^−7 M, measured at 0, 1, 3, 5 days; listed as Vitamin D3. It counts as cell-based, human.
The test system of experiment [4] is CRAMP. The experiment can be described thus: CRAMP induction in murine cell line Wehi3B. The format is cell-based. The note with it: data not shown. An excerpt:
(§1) To elucidate further the role of the VDR in regulating CAMP gene expression, the expression of the murine CAMP/CRAMP gene was examined in RNA from untreated bone marrow cells from a VDR-deficient mouse and its wild type littermate (FIG. 14A, left panel). Bone marrow RNAs from C/EBPε-deficient and wild type mice were included as controls (FIG. 14A, left panel). As expected, the C/EBPε-deficient bone marrow lacked expression of CRAMP (Verbeek, W. et al., “Myeloid transcription factor C/EBPepsilon is involved in the positive regulation of lactoferrin gene expression in neutrophils,” Blood, Vol. 94, pp. 3141-3150 (1999)). […]. […].

Experiment [5] deals with CRAMP. The experiment can be described thus: CRAMP induction in murine cell line NIH3T3. The note with it: NIH3T3, data not shown. The format is cell-based.
Text: as §1

Another experiment deals with human CAMP promoter. The experiment can be described thus: CAMP promoter-firefly luciferase reporter assay in U937 cells. Conditions: U937, 1×10^−7M, 18 h, dual luciferase.

Take `C=C1/C(=C\C=C2/CCC[C@]3(C)[C@@H]([C@H](C)CCCC(C)(C)O)CC[C@@H]23)C[C@@H](O)C[C@@H]1O` [1,25(OH)2D3, 1,25-dihydroxyvitamin D3]: the “CRAMP expression in bone marrow compared with a vehicle-treated mouse” value in the experiment with CRAMP [1] was “did not significantly alter CRAMP expression”. In addition, the “induction of CRAMP” value in the experiment on CRAMP [2] (BM Mφ from VDR-deficient or wild type mice, 24 or 48 h) was “CRAMP induction was not observed”; with CRAMP [3], “did not observe induction of CRAMP”; in the experiment with CRAMP [4] it was “did not observe induction of CRAMP”; in the experiment with CRAMP [5] it was “did not observe induction of CRAMP”. Moreover, the “decrease of CRAMP” value is on record as “approximately 2 fold” in the experiment with CRAMP [2] (24 h post-treatment (FIG. 14C)) and approximately 5 fold in the experiment with CRAMP [2] (48 h (FIG. 14C)). Also, the “time at which induction of the CAMP gene occurred” value in the experiment on CAMP worked out at 1 days. The “activation of deletion mutant pXP2-CAMP(ΔHindIII)-Luc” value with human CAMP promoter is on record as “not activated”. The “activation of deletion mutant pXP2-CAMP(ΔSmaI)-Luc” value in the experiment on human CAMP promoter is given as “not activated”. Moreover, the “activation of the full-length promoter construct pXP2-CAMP-Luc” value in the experiment on human CAMP promoter is 2-2.5 fold.

The values are drawn from patent US20100087406A1, “INDUCTION OF INNATE IMMUNITY BY VITAMIN D3 AND ITS ANALOGS” (CEDARS-SINAI MEDICAL CENTER, priority 2004, published 2010).
